MIC of invasive clinical C. tropicalis isolates, CLSI broth microdilution (fluconazole 0.12-256 mg/L, up to 1,024 for the azole-resistant cluster and its neighbour group; other ranges not stated); higher = less susceptible. Call: susceptible or wild type [S] / resistant or non-wild type [R] by CLSI breakpoints or cut-offs; intermediate and dose-dependent carry no call. '<=' and '>=' at the end values are inferred; the source marks only some of them. Isolates are numbered anew.
Assays:
Test in all cases: CLSI broth microdilution.
itraconazole = compound: CCC(C)n1ncn(-c2ccc(N3CCN(c4ccc(OCC5COC(Cn6cncn6)(c6ccc(Cl)cc6Cl)O5)cc4)CC3)cc2)c1=O [itraconazole]
micafungin = compound: CCCCCOc1ccc(-c2cc(-c3ccc(C(=O)N[C@H]4C[C@@H](O)[C@@H](O)NC(=O)[C@@H]5[C@@H](O)[C@@H](C)CN5C(=O)[C@H]([C@H](O)CC(N)=O)NC(=O)[C@H]([C@H](O)[C@@H](O)c5ccc(O)c(OS(=O)(=O)O)c5)NC(=O)[C@@H]5C[C@@H](O)CN5C(=O)[C@H]([C@@H](C)O)NC4=O)cc3)no2)cc1 [micafungin]
anidulafungin = compound: CCCCCOc1ccc(-c2ccc(-c3ccc(C(=O)N[C@H]4C[C@@H](O)[C@@H](O)NC(=O)[C@@H]5[C@@H](O)[C@@H](C)CN5C(=O)[C@H]([C@@H](C)O)NC(=O)[C@H]([C@H](O)[C@@H](O)c5ccc(O)cc5)NC(=O)[C@@H]5C[C@@H](O)CN5C(=O)[C@H]([C@@H](C)O)NC4=O)cc3)cc2)cc1 [anidulafungin]
posaconazole = compound: CC[C@@H]([C@H](C)O)n1ncn(-c2ccc(N3CCN(c4ccc(OC[C@@H]5CO[C@@](Cn6cncn6)(c6ccc(F)cc6F)C5)cc4)CC3)cc2)c1=O [posaconazole]
caspofungin = compound: CC[C@H](C)C[C@H](C)CCCCCCCCC(=O)N[C@H]1C[C@@H](O)[C@@H](NCCN)NC(=O)[C@@H]2[C@@H](O)CCN2C(=O)[C@H]([C@H](O)CCN)NC(=O)[C@H]([C@H](O)[C@@H](O)c2ccc(O)cc2)NC(=O)[C@@H]2C[C@@H](O)CN2C(=O)[C@H]([C@@H](C)O)NC1=O [caspofungin]
voriconazole = compound: C[C@@H](c1ncncc1F)[C@](O)(Cn1cncn1)c1ccc(F)cc1F [voriconazole]
amphotericin B = compound: C[C@@H]1[C@H](O)[C@@H](C)/C=C/C=C/C=C/C=C/C=C/C=C/C=C/[C@H](O[C@@H]2O[C@H](C)[C@@H](O)[C@H](N)[C@@H]2O)C[C@@H]2O[C@](O)(C[C@@H](O)C[C@@H](O)[C@H](O)CC[C@@H](O)C[C@@H](O)CC(=O)O[C@H]1C)C[C@H](O)[C@H]2C(=O)O [amphotericin B]
flucytosine = compound: Nc1[nH]c(=O)ncc1F [flucytosine]
fluconazole = compound: OC(Cn1cncn1)(Cn1cncn1)c1ccc(F)cc1F [fluconazole]

| Test System | MIC (itraconazole) | MIC (micafungin) | MIC (anidulafungin) | MIC (posaconazole) | MIC (caspofungin) | MIC (voriconazole) | MIC (amphotericin B) | MIC (flucytosine) | MIC (fluconazole) |
| --- | --- | --- | --- | --- | --- | --- | --- | --- | --- |
| Candida tropicalis isolate 297 (ERG11 copies: 2, Erg11p: no key change) | 0.06 mg/L [S] | 0.03 mg/L [S] | ≤ 0.015 mg/L [S] | 0.03 mg/L [S] | 0.06 mg/L [S] | 0.03 mg/L [S] | 0.25 mg/L [S] | ≤ 0.06 mg/L [S] | 0.5 mg/L [S] |
| Candida tropicalis isolate 298 (ERG11 copies: 2, Erg11p: no key change) | 0.5 mg/L [S] | 0.03 mg/L [S] | 0.03 mg/L [S] | 0.5 mg/L [R] | 0.03 mg/L [S] | 0.25 µg/mL | 1 mg/L [S] | ≤ 0.06 mg/L [S] | 4 µg/mL |
| Candida tropicalis isolate 299 (ERG11 copies: 2, Erg11p: no key change) | 0.12 mg/L [S] | 0.015 mg/L [S] | 0.06 mg/L [S] | 0.12 mg/L [S] | 0.06 mg/L [S] | 0.06 mg/L [S] | 0.5 mg/L [S] | ≤ 0.06 mg/L [S] | 1 mg/L [S] |
| Candida tropicalis isolate 300 (ERG11 copies: 6, Erg11p: Y132F, S154F (heterozygous)) | 1 mg/L [R] | 0.06 mg/L [S] | 0.12 mg/L [S] | 1 mg/L [R] | 0.03 mg/L [S] | ≥ 8 mg/L [R] | 1 mg/L [S] | ≤ 0.06 mg/L [S] | 256 mg/L [R] |
| Candida tropicalis isolate 301 (ERG11 copies: 2, Erg11p: no key change) | 0.25 mg/L [S] | 0.015 mg/L [S] | 0.03 mg/L [S] | 0.25 mg/L [S] | 0.03 mg/L [S] | 0.12 mg/L [S] | 1 mg/L [S] | ≤ 0.06 mg/L [S] | 2 mg/L [S] |
| Candida tropicalis isolate 302 (ERG11 copies: 2, Erg11p: no key change) | 0.12 mg/L [S] | 0.03 mg/L [S] | 0.25 mg/L [S] | 0.12 mg/L [S] | 0.25 mg/L [S] | 0.06 mg/L [S] | 1 mg/L [S] | ≤ 0.06 mg/L [S] | 2 mg/L [S] |
| Candida tropicalis isolate 303 (ERG11 copies: 2, Erg11p: no key change) | 0.12 mg/L [S] | 0.03 mg/L [S] | ≤ 0.015 mg/L [S] | 0.12 mg/L [S] | 0.12 mg/L [S] | 0.06 mg/L [S] | 0.5 mg/L [S] | ≤ 0.06 mg/L [S] | 1 mg/L [S] |
| Candida tropicalis isolate 304 (ERG11 copies: 2, Erg11p: Y132F, S154F (heterozygous)) | 0.25 mg/L [S] | 0.03 mg/L [S] | 0.12 mg/L [S] | 0.12 mg/L [S] | 0.03 mg/L [S] | 0.5 µg/mL | 1 mg/L [S] | 0.12 mg/L [S] | 16 mg/L [R] |
| Candida tropicalis isolate 305 (ERG11 copies: 2, Erg11p: no key change) | 0.12 mg/L [S] | 0.03 mg/L [S] | 0.03 mg/L [S] | 0.12 mg/L [S] | 0.03 mg/L [S] | 0.06 mg/L [S] | 0.5 mg/L [S] | ≤ 0.06 mg/L [S] | 1 mg/L [S] |
| Candida tropicalis isolate 306 (ERG11 copies: 2, Erg11p: no key change) | 0.12 mg/L [S] | 0.03 mg/L [S] | 0.03 mg/L [S] | 0.12 mg/L [S] | 0.03 mg/L [S] | 0.12 mg/L [S] | 1 mg/L [S] | ≤ 0.06 mg/L [S] | 1 mg/L [S] |
| Candida tropicalis isolate 307 (ERG11 copies: 2, Erg11p: no key change) | 0.25 mg/L [S] | 0.06 mg/L [S] | 0.12 mg/L [S] | 0.12 mg/L [S] | 0.25 mg/L [S] | 0.12 mg/L [S] | 0.5 mg/L [S] | ≤ 0.06 mg/L [S] | 2 mg/L [S] |
| Candida tropicalis isolate 308 (ERG11 copies: 2, Erg11p: no key change) | 0.25 mg/L [S] | 0.03 mg/L [S] | ≤ 0.015 mg/L [S] | 0.25 mg/L [S] | 0.03 mg/L [S] | 0.12 mg/L [S] | 1 mg/L [S] | ≤ 0.06 mg/L [S] | 2 mg/L [S] |
| Candida tropicalis isolate 309 (ERG11 copies: 2, Erg11p: no key change) | 0.06 mg/L [S] | 0.015 mg/L [S] | 0.06 mg/L [S] | 0.03 mg/L [S] | 0.06 mg/L [S] | ≤ 0.008 mg/L [S] | 0.25 mg/L [S] | 0.12 mg/L [S] | 0.25 mg/L [S] |
| Candida tropicalis isolate 310 (ERG11 copies: 2, Erg11p: no key change) | 0.25 mg/L [S] | 0.03 mg/L [S] | 0.12 mg/L [S] | 0.25 mg/L [S] | 0.25 mg/L [S] | 0.12 mg/L [S] | 0.5 mg/L [S] | ≤ 0.06 mg/L [S] | 2 mg/L [S] |
| Candida tropicalis isolate 311 (ERG11 copies: 2, Erg11p: Y132F, S154F (homozygous)) | 0.25 mg/L [S] | 0.03 mg/L [S] | 0.25 mg/L [S] | 0.25 mg/L [S] | 0.06 mg/L [S] | 2 mg/L [R] | 1 mg/L [S] | ≤ 0.06 mg/L [S] | 32 mg/L [R] |
| Candida tropicalis isolate 312 (ERG11 copies: 2, Erg11p: Y132F, S154F (homozygous)) | 0.5 mg/L [S] | 0.03 mg/L [S] | 0.03 mg/L [S] | 0.5 mg/L [R] | 0.06 mg/L [S] | 2 mg/L [R] | 1 mg/L [S] | ≤ 0.06 mg/L [S] | 128 mg/L [R] |
| Candida tropicalis isolate 313 (ERG11 copies: 2, Erg11p: no key change) | 0.25 mg/L [S] | 0.03 mg/L [S] | 0.03 mg/L [S] | 0.25 mg/L [S] | 0.03 mg/L [S] | 0.12 mg/L [S] | 1 mg/L [S] | ≤ 0.06 mg/L [S] | 2 mg/L [S] |
